Reference: PubChem BioAssay AID1508642 (National Center for Advancing Translational Sciences (NCATS), 2021)
Among all 43,000 compounds or so, about 200 (0.47%) were called active. About 12% were inconclusive and are not listed. The call rests on the fitted dose curve; in most records, active means well fitted cell-killing curve with a large enough effect; inconclusive means small, poorly fitted or top-dose-only effect, or effect the other way; inactive means flat fitted curve, though single readings scatter. The list shows a part of the results.

assay: Cell viability qHTS assay in S16 Pmp22-F2sN cells; conditions: S16 Pmp22-F2sN Schwann cells (luciferase reporters placed in the Pmp22 gene) viability, CellTiter-Glo, 24 h; series mostly up to 57.5 µM; activity change, negative = cytotoxicity: at the top concentration; further: nearly all actives have a fitted effect of over 65% in size
In short: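 S16 Schwann cells carrying the Pmp22-F2sN reporter, seeded in 1536-well format, were exposed to library compounds for 24 h at 37C. Viability was read as CellTiter-Glo luminescence after 15 min at room temperature.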
On the % scale 0 is the no-effect control and ±100 the full control effect; potency means the concentration at half of the fitted maximal effect.

| SMILES | activity change, negative = cytotoxicity | Potency |
| --- | --- | --- |
| CC(Nc1oc(-c2ccc(COc3ccccc3)o2)nc1C#N)c1ccccc1 (stereo not drawn) | inactive: -7.71% |  |
| Cc1cccc(-n2ncc3c(NCCOCCO)ncnc32)c1 | inactive: 2.05% |  |
| COc1ccc(-c2cn3c(n2)sc2cc(C(=O)NCCc4ccccc4)ccc23)cc1 | inactive: 0.62% |  |
| COc1ccccc1/C=C/c1nc(C#N)c(NCc2ccccc2)o1 | inactive: -0.41% |  |
| Cc1ccc(C)c(NC(=O)c2cnc(N3CCCC3)nc2C)c1 | inactive: 0.593% |  |
| O=C(OCc1cc(=O)n2nc(C3CC3)sc2n1)c1cccc(NC(=O)c2ccccc2Cl)c1 | inactive: 8.02% |  |
| Cc1cc(C)cc(NC(=O)NCc2noc3ccccc23)c1 | inactive: 5.16% |  |
| CCC(=O)N1CCCc2cc(S(=O)(=O)N3CCC(C(=O)NC4CCC(C)CC4)CC3)ccc21 (stereo not drawn) | inactive: -27.6% |  |
| O=C(Cc1ccc(Cl)cc1)NC1CC(=O)N(c2ccc3c(c2)OCCO3)C1 (stereo not drawn) | inactive: -0.598% |  |
| COc1ccc(-n2ncc(C(=O)NCc3cccs3)c2C2CCN(C(=O)OC(C)(C)C)CC2)cc1 | inactive: -5.24% |  |
| Cc1cccc(CNC(=O)C2CCN(c3nn4cc(-c5ccc(F)cc5)nc4s3)CC2)c1 | inactive: 7.14% |  |
| CCc1ccccc1N(CC)C(=O)c1cc2c(s1)-c1ccccc1SC2 | inactive: -4.13% |  |
| Cn1c(SCc2ccc(F)cc2)nc2ccc(C(=O)NCc3cccc(Cl)c3)cc21 | inactive: -12.2% |  |
| CCOc1ccccc1C(=O)NCc1ccc2c(c1)CCN2C(=O)c1ccc(F)cc1 | inactive: -2.64% |  |
| COc1ccc2c(CNC3CCC(C)CC3)c(C(=O)O)n(Cc3ccc(F)cc3)c2c1 (stereo not drawn) | inactive: 1.62% |  |
| COc1cccc(OCCSc2nc3ccccc3n2CC(=O)N2CCOCC2)c1 | inactive: 26.2% |  |
| Cc1ccc(N(Cc2cccs2)C(=O)c2ccc(OC(C)C)cc2)cc1 | inactive: -1.98% |  |
| Cc1cc(=O)n2nc(N3CCC(C(=O)Nc4ccc(Br)c(C)c4)CC3)sc2n1 | inactive: 1.35% |  |
| COCCNC(=O)c1ccc(Cn2c(SCC(N)=O)nc3ccccc3c2=O)cc1 | inactive: -0.659% |  |
| COc1ccc(C2CC(=O)Nc3c2c(C)nn3-c2nncc(-c3ccccc3)n2)c(OC)c1OC (stereo not drawn) | inactive: -0.317% |  |
| COc1cc2nc(NCCc3cccc(C)c3)n3nc(-c4ccccc4)nc3c2cc1OC | inactive: 23.5% |  |

| SMILES | activity change, negative = cytotoxicity | Potency |
| --- | --- | --- |
| CCOC(=O)c1cccc(NC(=O)COc2ccc3c(C)cc(=O)oc3c2)c1 | inactive: 9.29% |  |
| COc1ccc(-c2noc(CN(C(=O)c3ccc(C)cc3C)C(C)C)n2)cc1 | inactive: 6.46% |  |
| CCOC(=O)c1ccccc1NC(=O)CSc1ccc(-c2sc(C)nc2C)nn1 | inactive: -9.14% |  |
| Cc1ccc(C(=O)NCCc2csc(-c3cccc(F)c3)n2)cc1C | inactive: 9.08% |  |
| CCc1ccc(CNC(=O)CN2C(=O)C3CCCCN3c3ccc(C(=O)N4CCCC4)cc32)cc1 (stereo not drawn) | inactive: 12.6% |  |
| CC1CCN(S(=O)(=O)c2ccc3c(c2)N(C)C(=O)CC(=O)N3C)CC1 | inactive: 3.45% |  |
| Cc1ccc(-c2nnc(SCc3ccccc3)o2)cc1 | inactive: 1.37% |  |
| COc1cccc(NC(=O)C(C)n2c(=O)cc(C(F)(F)F)c3c(C)nn(C)c32)c1 (stereo not drawn) | inactive: -4.78% |  |
| CCCNC(=O)CN1C(=O)COc2ccc(S(=O)(=O)N3CCCCCC3)cc21 | inactive: 3.04% |  |
| CCN(CC)C(=O)Cn1c(SCC(=O)Nc2ccc(F)cc2)nc2ccccc21 | inactive: -2.11% |  |
| CCOc1ccccc1NC(=O)Cn1c(=O)nc(-c2ccccc2F)c2cc(Cl)ccc21 | inactive: 3.42% |  |
| COc1ccccc1NC(=O)c1cc2c(-c3ccccc3)nn(-c3ccccc3)c2s1 | inactive: 0.157% |  |
| CCc1ccccc1NC(=O)Cn1c(=O)n(C(C)C)c(=O)c2oc3ccccc3c21 | inactive: 12.4% |  |
| COc1ccc(OCc2nc3ccccc3n2Cc2ccc(C(C)(C)C)cc2)cc1 | inactive: -20.3% |  |
| Cc1noc(Cn2c(=O)c3ccccc3n(CC(=O)Nc3cc(Cl)ccc3C)c2=O)n1 | inactive: -8.39% |  |
| CCOC(=O)c1[nH]c2ccccc2c1NC(=O)c1ccc(C)c(C)c1 | inactive: -4.61% |  |
| O=C(CSc1n[nH]c(-c2ccccc2)n1)N1CCN(c2ccc(F)cc2)CC1 | inactive: 6.27% |  |
| O=C(CCn1cnc2onc(-c3ccc(F)cc3)c2c1=O)Nc1cccc(C(F)(F)F)c1 | inactive: -18.9% |  |
| CCc1ccccc1NC(=O)CCn1cccn1 | inactive: -6.3% |  |
| Cc1ccc(CSc2nc3ccccc3c3nc(CCn4c(C)nc5ccccc54)nn23)cc1 | inactive: 1.02% |  |
| CCOc1ccc(NC(=O)c2ccc3c(=O)n4c(nc3c2)CCCCC4)cc1 | inactive: -3.17% |  |

| SMILES | activity change, negative = cytotoxicity | Potency |
| --- | --- | --- |
| Cc1cc(C)cc(NC(=O)C(C)N2Cc3ccccc3C2=O)c1 (stereo not drawn) | inactive: 11.9% |  |
| Cc1ccc(-n2c(=O)c3c(cnn3C)n(CC(=O)Nc3cccc(Cl)c3)c2=O)cc1 | inactive: -6.74% |  |
| CCOc1ccccc1NC(=O)CN1C(=O)CC(c2ccc(C)c(C)c2)=Nc2ccccc21 | inactive: -1.02% |  |
| Cc1ccc(CNC(=O)C2CCN(C(=O)N3CC(C)Oc4ccc(Cl)cc43)CC2)cc1 (stereo not drawn) | inactive: -17.6% |  |
| Cc1ccc(-c2nnc3ccccc3c2C(=O)Nc2ccc(F)cc2)cc1 | inactive: 17.2% |  |
| COc1ccc(C(C)=O)cc1CSc1nc(Nc2ccc(F)c(F)c2)c2ccccc2n1 | inactive: -17.5% |  |
| O=C(O)c1cc(-c2ccccc2)nn1Cc1ccccc1 | inactive: -1.26% |  |
| COc1ccccc1Nc1nn2c(=O)c3ccc(C(=O)NCCc4ccccc4)cc3nc2s1 |  | active: 8.91 µM |
| Cc1ccc(N2CCN(c3nc4ccc(C(=O)c5ccccc5)cc4n4cnnc34)CC2)c(C)c1 | inactive: -2.32% |  |
| COc1ccc(C)cc1NC(=O)N(C(C)C)C1CCN(C(C)=O)CC1 | inactive: -1.14% |  |
| CC(=O)Nc1ccc(NC(=O)c2ccc3c(c2)CCN3S(=O)(=O)c2ccc(C)cc2)cc1 | inactive: 4.74% |  |
| Cc1ccn2c(Nc3ccccc3)c(-c3c[nH]c4ccccc34)nc2c1 | inactive: -1.8% |  |
| Cc1cc(C)cc(NC(=O)C(=O)NCCc2sc(-c3cccc(F)c3)nc2C)c1 | inactive: 9.09% |  |
| CCCCCn1c(CCCNC(=O)c2ccccc2OC)nc2ccccc21 | inactive: -29.8% |  |
| O=C(NCc1ccccc1Cl)C1=Cc2cc(Br)ccc2OC1 | inactive: 13% |  |
| Cc1ccccc1NC(=O)CSc1ccc(-c2ccccn2)nn1 | inactive: -6.55% |  |
| COc1ccccc1-c1nn(CCC(=O)Nc2ccc(C)cc2)c2nc(C)cc(C)c12 | inactive: 13.9% |  |
| CCN1CCN(CCCNC(=O)Cn2nc(C)n3c(cc4c(OC)cccc43)c2=O)CC1 | inactive: 14.6% |  |
| CC1=C(C(N)=O)C(c2ccc(C)cc2)n2nc(SCc3ccccc3)nc2N1 (stereo not drawn) | inactive: 4.9% |  |
| CCOc1ccc(NC(=O)CC2C(=O)N(c3ccc(OC)cc3)C(=O)N2CCC2=CCCCC2)cc1 (stereo not drawn) | inactive: -0.565% |  |
| CCN(CC)C(=O)Cn1ncc2c([nH]c3ccccc32)c1=O | inactive: 6.04% |  |
